# According to the supplement of paper PMC9334596:
# Values joined by “and” are separate entries in the source; they are usually repeats but may differ in a detail not shown here. Identical values can stand only once. The full ranking holds about 5,300 compounds; the median of “PER2::LUC luminescence relative to vehicle control” is about 0.96, and the highest 2% start at about 1.3. The list shows a part of the results.
# Test system: mPer2Luc MEF
# Assay: PER2::LUC luminescence relative to vehicle control (fold of vehicle); higher = higher PER2::LUC reporter signal
# Conditions: 10 µM
# Method in brief: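 The reported values are PER2::LUC luminescence as fold of vehicle control in mouse embryonic fibroblasts carrying the mPer2Luc reporter. Cells were seeded at ~3000 per well in 384-well plates in DMEM with 10% FBS at 37 °C and 5% CO2, and compounds were added at 10 μM 48 h later. ONE-Glo luminescence was read 24 h and 30 h after treatment.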
Compound,PER2::LUC luminescence (time after treatment 24 h),PER2::LUC luminescence (time after treatment 30 h)
Nc1ccn([C@@H]2CS[C@H](CO)O2)c(=O)n1,1.14,0.884
Nc1c2c(nc3ccccc13)CCCC2O (centres undefined),0.853,0.991
O=C1NCCCc2c1oc1ccc(O)cc21,0.85,0.922
COc1ccccc1OCC(O)COC(N)=O (centres undefined),1.07,0.939
Oc1cc2c(cc1O)C(c1ccccc1)CNCC2 (racemic),0.807,0.855
NC1CCN(c2nc3c(cc2F)c(=O)c(C(=O)O)cn3-c2ccc(F)cc2F)C1 (centres undefined),1.12,1.06
C=CCCCCCCCCC(=O)[O-].C=CCCCCCCCCC(=O)[O-].[Zn+2],1.24,0.994
CCNC(=O)/C=C/c1cccc(Br)c1,1.01,1.16
C[C@@H]1C(=O)NC2=Nc3cccc(Cl)c3CN21,0.982,0.951
O=c1cc(-c2ccccc2)oc2cccc(O)c12,1.25,1.42
COC(=O)Nc1nc2cc([S+]([O-])c3ccccc3)ccc2[nH]1 (centres undefined),0.713,1.07
CCC(=O)Nc1cccc(Oc2nc(Nc3ccc(N4CCN(C)CC4)cc3OC)ncc2Cl)c1,0.432,0.449
N#Cc1c(NC(=O)c2cccc3ccccc23)sc2c1CCCC2,0.4,0.466
CCCOc1ccc(S(=O)(=O)N2CCN(CCO)CC2)cc1-c1nc2c(CCC)cn(CC)c2c(=O)[nH]1,0.679,0.717
C=CC(=O)Nc1cccc(Nc2nc(Nc3ccc(OCCOC)cc3)ncc2F)c1,0.619 and 0.585,0.661 and 0.564
O=C(O)CP(=O)(O)O,0.9,0.964
Cn1ccc2cc3c(cc21)CCN3C(=O)Nc1cccnc1,0.855,0.965
N#CC(C#N)=C(N)/C(C#N)=C/c1cc(O)c(O)c(O)c1,0.816,0.979
CC(C)C(C)C(O)C(O)C(C)C1CCC2C3COC(=O)C4CC(O)C(O)CC4(C)C3CCC12C (centres undefined),0.891,0.88

Compound,PER2::LUC luminescence (time after treatment 24 h),PER2::LUC luminescence (time after treatment 30 h)
CCN(CC)CCCCCCCCOC(=O)c1cc(OC)c(OC)c(OC)c1,0.846,0.848
CO/N=C(\C(=O)N[C@@H]1C(=O)N2C(C(=O)OC(C)OC(C)=O)=C(COC(N)=O)CS[C@H]12)c1ccco1 (some centres undefined),1.02 and 1.01,1.09
C=CCOC(Cn1ccnc1)c1ccc(Cl)cc1Cl (centres undefined),1.29 and 0.968,1.31 and 0.96
O=C(/C=C/c1ccc(O)c(O)c1)O[C@@H]1C[C@](O)(C(=O)O)C[C@@H](O)[C@H]1O,1.8,1.28
C[C@@H]1O[C@@H](OC[C@H]2O[C@@H](Oc3cc(O)c4c(=O)cc(-c5ccc(O)cc5)oc4c3)[C@H](O)[C@@H](O)[C@@H]2O)[C@H](O)[C@H](O)[C@H]1O,0.948,0.927
C[C@@H]1COC(Nc2ccc3ncnc(Nc4ccc(OCc5nccs5)c(Cl)c4)c3c2)=N1,1.01,0.887
CC(=O)OCC(=O)[C@H]1CC[C@H]2[C@@H]3CCC4=CC(=O)CC[C@]4(C)[C@H]3CC[C@]12C,0.632,0.962
Cc1cc(SCc2sc(-c3ccc(C(F)(F)F)cc3)nc2C)ccc1OCC(=O)O,0.941,1.01
C#CCn1c(=O)c2c(ncn2C)n(C)c1=O,0.933,0.858
COc1cc(O)ccc1C(C)=O,0.96,0.926
Fc1ccc(-c2c3cccc(C(F)(F)F)c3nn2Cc2ccc(F)cc2Cl)cc1,0.962,0.911
CCOc1cc2c(c(F)c1OCC)C(=N)N(CC(=O)c1cc(N3CCOCC3)c(OC)c(C(C)(C)C)c1)C2,0.14,0.117
Cn1cc(-c2ccc3c(c2)CCN3C(=O)Cc2cccc(C(F)(F)F)c2)c2c(N)ncnc21,0.634,0.566
Oc1cccc(-c2nc(N3CCOCC3)c3oc4ncccc4c3n2)c1,0.876,0.791
CC(CN(C)C)CN1c2ccccc2Sc2ccccc21 (centres undefined),0.81,0.814
CC1(C)[C@@H](OC(=O)CCC(=O)O)CC[C@]2(C)[C@H]3C(=O)C=C4[C@@H]5C[C@@](C)(C(=O)O)CC[C@]5(C)CC[C@@]4(C)[C@]3(C)CC[C@@H]12,0.965 and 0.646,0.891 and 1.01
N=C(N)NCCN1CCCCCCC1,1.05,1.11
CC(C)CCCC(C)NC(C)C (centres undefined),0.984,0.97
C#C[C@]1(O)CC[C@H]2[C@@H]3CCC4=CC(=O)CC[C@@H]4[C@H]3CC[C@@]21CC,1.03,1.1

Compound,PER2::LUC luminescence (time after treatment 24 h),PER2::LUC luminescence (time after treatment 30 h)
N#C/C(=C\c1ccc(O)c(O)c1)C(=O)NCc1ccccc1,0.908 and 0.909,0.829 and 0.787
CC(N)(Cc1ccc(O)c(O)c1)C(=O)O (racemic),0.98,0.884
CCN(CC)CCOCCOC(=O)C(CC)(CC)c1ccccc1,0.84 and 0.704,0.816 and 0.848
Cc1cc(C)c(S(=O)(=O)Nc2cccc(C(F)(F)F)c2)c(C)c1,1.1,1.07
CN1C2CCC1CC(OC(=O)C(O)c1ccccc1)C2 (centres undefined),0.998,1.01
Nc1ccccc1C(=O)CC(N)C(=O)O (centres undefined),0.995,0.985
CC(C)(C)[C@H]1CC[C@H](CC2=C(O)C(=O)c3ccccc3C2=O)CC1,1,0.901
COC(=O)Nc1ccc2[nH]cc(CCNC(C)=O)c2c1,0.821,0.976
O=C([O-])/C=C/C(=O)[O-].[Fe+2],0.928,0.857
O=C(NC1CCN(CC(F)(F)F)CC1)c1ccc(-c2cccc(F)c2)nc1,1.15,1.04
CCCOc1ccc(C(=O)OCCN(CC)CC)cc1N,1.03,0.962
CC1=C(/C=C/C(C)=C\C=C\C(C)=C\C(=O)O)C(C)(C)CCC1,2.08,1.87
O=C(NCCN1CCCCC1)c1ccc(I)cc1,1.02,0.961
CC(=O)OCC(=O)[C@@]1(OC(C)=O)[C@@H](C)C[C@H]2[C@@H]3C[C@H](F)C4=CC(=O)C=C[C@]4(C)[C@@]3(F)[C@@H](O)C[C@@]21C,0.727,0.933
CCN(CC)CCCCNc1ncc2cc(-c3cc(OC)cc(OC)c3)c(NC(=O)NC(C)(C)C)nc2n1,0.507,0.487
C[C@]1(Cn2ccnn2)[C@H](C(=O)O)N2C(=O)C[C@H]2S1(=O)=O,0.936 and 1.11,0.907 and 1.1
"CN(C)CCC(c1ccc(Br)cc1)c1ccccn1 (single isomer, unassigned; (+))",0.858,0.724
CC[C@@H](CO)NCCN[C@@H](CC)CO,0.99 and 1.12,1.09 and 1.05
C/C=C/C/C=C/CCC(=O)[C@H]1O[C@H]1C(N)=O,0.657,0.693
